In patent publication EP2982680B1, “PROTAMINE PEPTIDOMIMETIC, AND PHARMACEUTICALLY ACCEPTABLE SALTS AND USE THEREOF” (Academy of Military Medical Sciences, priority 2013, dated 2014):
At least one peptide structure holds a part that was inferred or is arguable (an end, a ring closure or a residue). Where no end group is shown, it is not given here.

Test system: heparin
Assay: Antagonism of protamine-like peptides against heparin anticoagulation in vitro (heparin neutralization, rabbit whole blood clotting)
Design: species or system New Zealand rabbits
Conditions: for Amount of neutralized heparin (U/mg) Mean ± SD: average from five tests; for Amount of neutralized heparin (U/mg) Mean ± SD / Clotting time / Amount of neutralized heparin (U/mg) 1 / Amount of neutralized heparin (U/mg) 2 / Amount of neutralized heparin (U/mg) 3 / Amount of neutralized heparin (U/mg) 4 / Amount of neutralized heparin (U/mg) 5 / anti-heparin effect (in words): rabbit whole blood added with heparin; for I (Anti-heparin index): concentration of polypeptide/1 unit of heparin, lower index = better antagonism; for Clotting time: 37 °C, blank control 10.62±0.49; for Amount of neutralized heparin (U/mg) 1: repeat 1 of 5; for Amount of neutralized heparin (U/mg) 1 / Amount of neutralized heparin (U/mg) 2 / Amount of neutralized heparin (U/mg) 3 / Amount of neutralized heparin (U/mg) 4 / Amount of neutralized heparin (U/mg) 5: test sample 1 mg per mL; for Amount of neutralized heparin (U/mg) 2: repeat 2 of 5; for Amount of neutralized heparin (U/mg) 3: repeat 3 of 5; for Amount of neutralized heparin (U/mg) 4: repeat 4 of 5; for Amount of neutralized heparin (U/mg) 5: repeat 5 of 5; for anti-heparin effect (in words): in vitro
From the text: Reference standard of heparin was exactly weighed and then dissolved into several solutions with different concentrations by adding 0.9% sodium chloride solution according to the marked potency. The increment of heparin units per mL between two solutions having adjacent concentrations should be similar with no more than five units.
The test sample was the protamine-like peptide. If the test sample was in a powder form, it was accurately weighed on the basis of dry sample. Then, a solution of 0.9% sodium chloride was added thereto to provide a solution containing 1 mg of test sample per mL.
Eight small dry clean teat tubes with the same diameter (0.8 × 3.8 cm) were picked. Tube 1 and Tube 8 were used as the blank control into which 0.2 mL of 0.9% sodium chloride solution was added. Tube 2 to Tube 7 were used as the ones with test samples into each of which 0.1 ml of test solution was added together with 0.1 ml of heparin standard dilution having one concentration mentioned above. The mixture was well mixed immediately. An appropriate amount (0.8 ml) of whole blood freshly drawn from rabbits was added into these eight test tubes described above and then well mixed immediately to avoid generation of bubbles. Timing began at that time and the test tubes were all placed in a thermostatic water bath at 37 ± 0.5 °C. The interval between blood sampling and tube incubation in the thermostatic water bath should not be longer than two minutes. If the plasma was used, then 0.7 mL of plasma was added to each of the test tubes described above and then the test tubes were placed into a thermostatic water bath at 37 ± 0.5 °C to warm up for 5 to 10 minutes. Then, into each test tube, 0.1 mL of 1% calcium chloride solution was added and immediately mixed to avoid generation of bubbles. At that time, timing began. The test tubes were observed and the time until coagulation was recorded.
The clotting time in one control tube should not be more than 1.35 times longer than that in the other control tube. Among test tubes where the clotting time was no longer than 150% of the average coagulating time in two control tubes, the tube with the highest concentration of heparin was used as the endpoint tube.
The test was repeated for five times. The concentration of heparin in the endpoint tube was measured in all five tests, and the deviation was not allowed to be higher than 10 units. The average from five tests was deemed as the number of units of the heparin neutralized by 1 mg of the test sample (dry product) (the amount of neutralized heparin).
The anticoagulant time of heparin, i.e. the clotting time from the addition of the series of protamine-like peptides, were recorded where the clotting time in tubes with plasma but not heparin was considered as the control clotting time. The average value in each coagulation test was calculated, and ratio of the concentration in nmol of the added potamine-like peptide to 1 IU of neutralized heparin was regarded as the anti-heparin index (I) of the protamine-like peptide. Anti-heparin index = concentration of polypeptide/1 unit of heparin (nmol/U). [formula]

Molecule | Amount of neutralized heparin (U/mg) Mean ± SD [U/mg] | I (Anti-heparin index) [nmol/U] | Clotting time [min] | Amount of neutralized heparin (U/mg) 1 [U/mg] | Amount of neutralized heparin (U/mg) 2 [U/mg] | Amount of neutralized heparin (U/mg) 3 [U/mg] | Amount of neutralized heparin (U/mg) 4 [U/mg] | Amount of neutralized heparin (U/mg) 5 [U/mg] | anti-heparin effect (in words) | anti-heparin activity (rabbit whole blood)
RRRRRRRRRRKHRRRRRRRRRR [R20KH, (R)10 K1H1(R)10] | 115±3.53 | 2.71 | 9.35 ± 1.06 | 110 | 115 | 120 | 115 | 115 | – | –
RRRKHRRR [R6KH, (R)3K1H1(R)3] | < 60 | – | – | < 60 | < 60 | < 60 | < 60 | < 60 | – | –
N=C(N)NCCC[C@H](NC(=O)[C@H](CCCNC(=N)N)NC(=O)[C@H](CCCNC(=N)N)NC(=O)[C@H](CCCNC(=N)N)NC(=O)[C@H](CCCNC(=N)N)NC(=O)[C@H](CCCNC(=N)N)NC(=O)[C@H](CCCNC(=N)N)NC(=O)[C@@H](N)CCCNC(=N)N)C(=O)O [R8, (R)8] | – | – | 16.38 ± 3.58 | <70 | <70 | <70 | <70 | <70 | relatively weak anti-heparin activity | less than 70 U/mg
RRRRRRRRRKHRRRRRRRRR [R18KH, (R)9K41H1(R)9] | 111±2.24 | 2.91 | 9.06 ± 0.56 | 110 | 110 | 110 | 110 | 115 | – | –
RRRRRRRRRRRRRRRRRRRR [R20, (R)20] | 106.6±3.97 | 4.00 | 12.18 ± 0.45 | 108 | 106 | 110 | 100 | 109 | exhibited anti-heparin effects | –
N=C(N)NCCC[C@H](NC(=O)[C@H](CCCNC(=N)N)NC(=O)[C@H](CCCNC(=N)N)NC(=O)[C@H](CCCNC(=N)N)NC(=O)[C@H](Cc1c[nH]cn1)NC(=O)[C@H](CCCNC(=N)N)NC(=O)[C@H](CCCNC(=N)N)NC(=O)[C@H](CCCNC(=N)N)NC(=O)[C@H](CCCNC(=N)N)NC(=O)[C@H](CCCNC(=N)N)NC(=O)[C@H](CCCNC(=N)N)NC(=O)[C@H](CCCNC(=N)N)NC(=O)[C@H](CCCNC(=N)N)NC(=O)[C@H](CCCNC(=N)N)NC(=O)[C@@H](N)CCCNC(=N)N)C(=O)O [R15-5] | 118.6±1.34 | 3.86 | 14.20 ± 035 | 110 | 113 | 105 | 110 | 105 | – | –
RRRRRKHRRRRR [R10KH, (R)5K1H1(R)5] | 91±2.24 | 5.93 | 8.47 ± 0.32 | 90 | 90 | 90 | 95 | 90 | – | –
N=C(N)NCCC[C@H](NC(=O)[C@H](CCCNC(=N)N)NC(=O)[C@H](CCCNC(=N)N)NC(=O)[C@H](CCCNC(=N)N)NC(=O)[C@H](CCCNC(=N)N)NC(=O)[C@H](CCCNC(=N)N)NC(=O)[C@H](CCCNC(=N)N)NC(=O)[C@H](CCCNC(=N)N)NC(=O)[C@@H](N)CCCNC(=N)N)C(=O)O [R9, (R)9] | 71±2.24 | 12.67 | 14.44 ± 1.17 | 70 | 70 | 70 | 75 | 70 | exhibited anti-heparin effects | –
RRRRRRRKHRRRRRRR [R14KH, (R)7K1H1R)7] | 116±2.24 | 3.49 | 8.72 ± 0.51 | 120 | 115 | 115 | 115 | 115 | – | –
